Residue numbers refer to the chain shown, from its start. These are yes or no findings as the source states them, for the method shown. In cells and extracts the contact can be indirect. Some results given as binding are weak or reduced against the parent protein; the word gives no strength. Tags and fused reporters may be left off the sequences shown. Each block holds one molecule with its values, some of them ahead of it.
Experiments:
EGFP-LTi6b = molecular target: T1, EGFP-LTi6b (UniProt Q9ZNS6); experiment: co-IP; total protein extract of FLAG-ZAR1 or EGFP-LTi6b (control) transgenic plants (inflorescences and siliques 1-2 DAP, or seedlings 10 DAG); anti-FLAG-M2 gel, 30 min; blots with anti-AGB1 and anti-CaM antibodies
T1 sequence: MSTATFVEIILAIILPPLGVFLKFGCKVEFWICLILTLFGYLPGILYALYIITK

[1] = molecular target: T2, FLAG-ZAR1 (transgenic plants) (Arabidopsis) (UniProt Q9ZU46); experiment: as above
T2 sequence: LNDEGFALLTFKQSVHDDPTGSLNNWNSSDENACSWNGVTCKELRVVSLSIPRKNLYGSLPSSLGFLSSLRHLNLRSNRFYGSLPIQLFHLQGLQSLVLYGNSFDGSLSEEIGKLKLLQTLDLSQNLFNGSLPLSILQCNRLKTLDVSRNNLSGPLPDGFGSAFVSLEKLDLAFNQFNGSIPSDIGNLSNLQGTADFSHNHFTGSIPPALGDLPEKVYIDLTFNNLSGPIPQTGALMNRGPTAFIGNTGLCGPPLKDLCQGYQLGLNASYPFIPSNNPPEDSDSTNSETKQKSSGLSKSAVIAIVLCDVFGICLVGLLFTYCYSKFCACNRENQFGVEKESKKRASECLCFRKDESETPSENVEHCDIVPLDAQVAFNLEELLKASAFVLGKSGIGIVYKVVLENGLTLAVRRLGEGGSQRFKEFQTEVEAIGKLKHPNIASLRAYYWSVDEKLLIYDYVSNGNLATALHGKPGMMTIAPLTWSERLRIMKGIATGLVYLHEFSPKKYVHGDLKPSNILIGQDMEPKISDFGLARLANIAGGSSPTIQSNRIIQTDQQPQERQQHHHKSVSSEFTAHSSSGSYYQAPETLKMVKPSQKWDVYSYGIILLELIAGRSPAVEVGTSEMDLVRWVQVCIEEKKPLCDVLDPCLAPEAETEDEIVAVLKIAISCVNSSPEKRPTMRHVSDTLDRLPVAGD

MBP-AGB1 (Arabidopsis) = molecular target: T3, MBP-AGB1 (Arabidopsis) (UniProt P49177); experiment: pull-down; His-tagged ZAR1 intracellular domain co-incubated with GST-CaM1 and MBP-AGB1 together; pulled down by GST-CaM1 or by MBP-AGB1
T3 sequence: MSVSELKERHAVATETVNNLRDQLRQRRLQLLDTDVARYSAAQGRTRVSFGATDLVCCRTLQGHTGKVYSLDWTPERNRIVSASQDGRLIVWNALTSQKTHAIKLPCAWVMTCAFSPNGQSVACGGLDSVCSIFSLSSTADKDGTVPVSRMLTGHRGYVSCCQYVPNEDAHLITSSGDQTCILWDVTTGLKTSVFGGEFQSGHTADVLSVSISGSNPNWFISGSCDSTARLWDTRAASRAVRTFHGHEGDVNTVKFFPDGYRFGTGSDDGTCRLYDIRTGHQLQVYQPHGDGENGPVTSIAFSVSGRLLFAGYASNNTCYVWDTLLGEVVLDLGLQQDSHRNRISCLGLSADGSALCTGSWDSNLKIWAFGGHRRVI

HA-CaM1 (Arabidopsis) = HA-CaM1 (Arabidopsis) (UniProt P0DH95); experiment: co-IP; FLAG-tagged ZAR1 or variants co-expressed with HA-tagged CaM1 in Arabidopsis leaf protoplasts; precipitated with anti-HA antibody
[2] = molecular target: T4, FLAG-ZAR^K534>A (Arabidopsis) (UniProt Q9ZU46); experiment: co-IP; FLAG-tagged ZAR1 or variants co-expressed with HA-tagged AGB1 in Arabidopsis leaf protoplasts; membrane fraction in 1% Triton X-100; anti-FLAG-M2 gel, 4°C, 1 hr; Western blot
T4 sequence: T2 sequence with K514A

[3] = molecular target: T5, FLAG-ZAR1 (protoplasts) (Arabidopsis) (UniProt Q9ZU46); experiment: as above
T5 sequence: T2 sequence

GST-CaM1 (Arabidopsis) = GST-CaM1 (Arabidopsis) (UniProt P0DH95); experiment: pull-down; His-tagged ZAR1 intracellular domain co-incubated with GST-CaM1 and MBP-AGB1 together; pulled down by GST-CaM1 or by MBP-AGB1
CaM1-nYFP (Arabidopsis) = CaM1-nYFP (Arabidopsis) (UniProt P0DH95); experiment: split reporter; BiFC (cYFP and nYFP fusions, 35S promoter) in Arabidopsis leaf protoplasts, confocal microscopy
AGB1-nYFP (Arabidopsis) = molecular target: T6, AGB1-nYFP (Arabidopsis) (UniProt P49177); experiment: as above
T6 sequence: T3 sequence

PMS1-nYFP (Arabidopsis) = molecular target: T7, PMS1-nYFP (Arabidopsis) (UniProt Q941I6); experiment: as above
T7 sequence: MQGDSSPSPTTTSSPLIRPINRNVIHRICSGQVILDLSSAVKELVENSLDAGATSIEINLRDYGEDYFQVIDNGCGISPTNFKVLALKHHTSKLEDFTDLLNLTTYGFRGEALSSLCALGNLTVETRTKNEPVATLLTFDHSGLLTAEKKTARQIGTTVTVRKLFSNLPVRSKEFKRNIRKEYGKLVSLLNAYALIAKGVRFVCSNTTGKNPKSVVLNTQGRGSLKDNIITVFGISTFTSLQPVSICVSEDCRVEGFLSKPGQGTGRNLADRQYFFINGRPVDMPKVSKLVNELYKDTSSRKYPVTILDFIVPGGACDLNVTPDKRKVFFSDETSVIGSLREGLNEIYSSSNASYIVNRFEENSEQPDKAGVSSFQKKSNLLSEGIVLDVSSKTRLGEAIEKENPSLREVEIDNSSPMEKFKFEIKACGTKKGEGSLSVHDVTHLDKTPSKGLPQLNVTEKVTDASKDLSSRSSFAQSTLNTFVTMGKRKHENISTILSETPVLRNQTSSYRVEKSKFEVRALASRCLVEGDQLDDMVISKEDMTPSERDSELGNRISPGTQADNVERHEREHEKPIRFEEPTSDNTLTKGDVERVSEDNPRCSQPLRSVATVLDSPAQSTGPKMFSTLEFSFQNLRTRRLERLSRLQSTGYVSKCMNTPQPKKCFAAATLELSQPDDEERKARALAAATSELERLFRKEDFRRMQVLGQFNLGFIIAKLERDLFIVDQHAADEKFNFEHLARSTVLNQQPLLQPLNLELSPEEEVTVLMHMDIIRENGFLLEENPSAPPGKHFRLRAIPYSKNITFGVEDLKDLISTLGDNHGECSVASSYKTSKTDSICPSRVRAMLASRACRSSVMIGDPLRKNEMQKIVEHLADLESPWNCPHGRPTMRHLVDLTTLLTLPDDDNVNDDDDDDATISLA

B1: FLAG-ZAR1 (protoplasts) (receptor, UniProt Q9ZU46 21-716)
chain: T2 sequence
binding (HA-CaM1 (Arabidopsis)): binds

B3: HA-AGB1 (protein, UniProt P49177 1-377)
chain: T3 sequence
binding [2]: binds
binding [3]: binds

B4: MBP-AGB1 (protein, UniProt P49177 1-377)
chain: T3 sequence
binding (GST-CaM1 (Arabidopsis)): binds

B5: AGB1 (endogenous) (protein, UniProt P49177 1-377)
chain: T3 sequence
binding (EGFP-LTi6b): no binding
binding [1]: binds

B6: ZAR1-cYFP (receptor, UniProt Q9ZU46 21-716)
chain: T2 sequence
binding (CaM1-nYFP (Arabidopsis)): binds
binding (AGB1-nYFP (Arabidopsis)): binds
binding (PMS1-nYFP (Arabidopsis)): no binding

Continued, values first:

binding (EGFP-LTi6b): no binding
binding [1]: binds
Molecule: CaM1 (endogenous) (from UniProt P0DH95 1-149)

binding (MBP-AGB1 (Arabidopsis)): binds
Molecule: GST-CaM1 (from UniProt P0DH95 1-149)

binding (HA-CaM1 (Arabidopsis)): binds
B2: FLAG-ZAR^K534>A (receptor, UniProt Q9ZU46 21-716)
chain: T2 sequence with K514A

From article PMC4807781
